This passage reports binding results from article PMC2684588.

The chains behind the UniProt entries cited, without tags or fusion partners.
UniProt Q7Z434: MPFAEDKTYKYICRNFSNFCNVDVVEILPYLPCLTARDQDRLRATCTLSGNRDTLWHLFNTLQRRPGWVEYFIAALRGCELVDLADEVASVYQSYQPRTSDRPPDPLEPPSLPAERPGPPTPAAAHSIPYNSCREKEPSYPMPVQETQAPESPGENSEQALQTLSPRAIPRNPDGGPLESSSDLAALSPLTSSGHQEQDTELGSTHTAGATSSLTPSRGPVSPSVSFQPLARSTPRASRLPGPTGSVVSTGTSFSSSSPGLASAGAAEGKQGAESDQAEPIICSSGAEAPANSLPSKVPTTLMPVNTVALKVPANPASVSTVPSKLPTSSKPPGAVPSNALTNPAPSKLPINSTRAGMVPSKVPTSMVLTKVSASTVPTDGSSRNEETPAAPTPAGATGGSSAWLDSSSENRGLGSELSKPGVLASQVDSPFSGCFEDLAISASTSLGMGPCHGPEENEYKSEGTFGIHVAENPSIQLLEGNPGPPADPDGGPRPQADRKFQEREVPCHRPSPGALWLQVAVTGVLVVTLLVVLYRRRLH

No constants are given. Whether binding was seen depends on the method and setting. Binding seen in cells or lysates may run through a third protein. Some binding calls cover weakened binding; strength is not graded here. For some assays here: Tags and fused reporters may be left off the sequences shown.

The target of one assay is T1, Flag-tagged RIG-I (UniProt O95786).
T1 sequence: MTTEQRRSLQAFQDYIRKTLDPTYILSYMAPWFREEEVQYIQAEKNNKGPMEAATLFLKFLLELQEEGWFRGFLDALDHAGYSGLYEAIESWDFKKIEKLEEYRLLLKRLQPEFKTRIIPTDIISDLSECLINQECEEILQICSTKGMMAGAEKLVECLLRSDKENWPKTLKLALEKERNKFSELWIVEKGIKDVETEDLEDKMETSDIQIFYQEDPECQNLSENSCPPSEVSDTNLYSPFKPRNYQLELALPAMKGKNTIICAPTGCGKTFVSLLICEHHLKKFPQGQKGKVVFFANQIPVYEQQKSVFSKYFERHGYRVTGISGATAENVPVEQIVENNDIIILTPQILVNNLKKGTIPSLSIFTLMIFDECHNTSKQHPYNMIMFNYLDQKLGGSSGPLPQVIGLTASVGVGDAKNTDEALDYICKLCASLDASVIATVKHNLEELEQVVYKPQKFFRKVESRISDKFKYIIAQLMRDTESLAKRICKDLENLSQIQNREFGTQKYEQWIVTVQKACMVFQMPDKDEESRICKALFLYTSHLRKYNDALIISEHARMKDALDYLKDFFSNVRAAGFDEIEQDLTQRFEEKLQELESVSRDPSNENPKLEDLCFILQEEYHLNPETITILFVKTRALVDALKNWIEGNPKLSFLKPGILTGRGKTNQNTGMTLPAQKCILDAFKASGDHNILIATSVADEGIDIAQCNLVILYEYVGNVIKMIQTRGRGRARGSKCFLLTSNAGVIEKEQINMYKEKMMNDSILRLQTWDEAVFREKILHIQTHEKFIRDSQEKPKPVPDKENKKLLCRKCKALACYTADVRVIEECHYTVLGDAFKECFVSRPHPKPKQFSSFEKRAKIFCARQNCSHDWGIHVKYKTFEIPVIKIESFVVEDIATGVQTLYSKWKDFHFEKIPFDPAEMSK
Kind of assay: co-IP; HEK293/HEK293T cells co-transfected with Flag- and HA-tagged plasmids; lysis buffer 20 mM Tris pH 7.5, 150 mM NaCl, 1% Triton X-100, 1 mM EDTA; IP with anti-Flag, anti-HA or mouse IgG and protein-A sepharose for 2 h; Western blot.

The target of the next assay is Flag-VISA (UniProt Q7Z434). The assay is described as above.
For assay [1], the target named is T2, endogenous RIG-I of HEK293T cells (human (endogenous in HEK293T)) (UniProt O95786).
T2 sequence: T1 sequence
The assay can be described thus: condition: only cells without stimulation (no SV infection); co-IP; endogenous proteins; HEK293T cells left untreated.

Assay [2] deals with T2, endogenous RIG-I of HEK293T cells (human (endogenous in HEK293T)). Kind of assay: condition: only cells transfected with polyI:C (100 µg, 4 h) instead of SV infection; co-IP; endogenous proteins; HEK293T cells transfected with polyI:C (100 µg) for 4 h before lysis.
For assay [3] the target is unchanged. The assay can be described thus: co-IP; endogenous proteins; untransfected HEK293T cells treated with SV for 4 h before lysis.

B1: HA-tagged REUL, full-length (protein, UniProt Q8IUD6-1 1-432)
chain: MAGLGLGSAVPVWLAEDDLGCIICQGLLDWPATLPCGHSFCRHCLEALWGARDARRWACPTCRQGAAQQPHLRKNTLLQDLADKYRRAAREIQAGSDPAHCPCPGSSSLSSAAARPRRRPELQRVAVEKSITEVAQELTELVEHLVDIVRSLQNQRPLSESGPDNELSILGKAFSSGVDLSMASPKLVTSDTAAGKIRDILHDLEEIQEKLQESVTWKEAPEAQMQGELLEAPSSSSCPLPDQSHPALRRASRFAQWAIHPTFNLKSLSCSLEVSKDSRTVTVSHRPQPYRWSCERFSTSQVLCSQALSSGKHYWEVDTRNCSHWAVGVASWEMSRDQVLGRTMDSCCVEWKGTSQLSAWHMVKETVLGSDRPGVVGIWLNLEEGKLAFYSVDNQEKLLYECTISASSPLYPAFWLYGLHPGNYLIIKQVKV
On to B1, for which the binding entry with Flag-tagged RIG-I is “binds”; in the assay with Flag-VISA, “no binding”.

B2: endogenous REUL of HEK293T cells (protein, UniProt Q8IUD6-1 1-432)
chain: B1 chain
On to B2, for which the figures for the binding result in assay [1], in assay [2] and in assay [3] were “no binding”, “no binding” and “binds”, respectively.
